We go through 19 variants from the RNAGym collection of RNA variant scans (doi:10.1073/pnas.2313332121).

To fix the notation:
B1: TPR 5TU (parent)
chain: GGAUCUUCUCGAUCUAACAAAAAAGACAAAUCUGCCACAAAGCUUGAGAGCAUCUUCGGAUGCAGAGGCGGCAGCCUUCGGUGGCGCGAUAGCGCCAACGUUCUCAACUAUGACACGCAAAACGCGUGCUCCGUUGAAUGGAGUUUAUCAUG

This sample is rich in variants without activity.

Variants of B1 are the subject of this data set. In words: polymerase ribozyme fitness, log enrichment relative to wild type (log ratio); higher = more active; in vitro selection for triplet polymerase activity. In a few lines: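 Mutant libraries were PCR-built and transcribed for each subunit of a heterodimeric triplet polymerase ribozyme and selected for one round in triplicate at −7 °C, frozen, before gel excision of extended constructs and streptavidin-bead capture. Input and output libraries were Illumina-sequenced, keeping genotypes with ≥10 input reads and ≥1 read per output. Fitness is a logarithmic ratio of genotype to wild-type enrichment, in base 2, using inverse-variance-weighted replicate averages.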
Regarding GGAUCUUCUCGAUCUAACAAAAAAGACAAAUCUGCCACAAAGCUUGAGAGCAUCUUAGCAUGCAGAGGCGGCAGCCUUCGGUGGCGGGAUAGCGCCAACGUUCUCAACUAUGACACGCAAAACGCGUGCUCCGUUGAAUGGAGUUGAUCAUG, the “polymerase ribozyme fitness (log ratio)” value was at most -4.2.
Take GGAUCUUCUCGAUCUAACAAAAAAGACAAAUCUGCCACAAAGCUUGAGAGCAUCUUAGGAUGCAGAGGCGGCAGCCUUCGGUAGCGCGGUAGCGUCAACGUUCUAAACUAUGACACGCAAAACGCGUGCUCCGGUGAAUGGAGUUUAUCUUG: the “polymerase ribozyme fitness (log ratio)” value was at most -4.2.
For the variant GGAUCUUCUCGAUCUAACAAAAAAGACAAAUCUGCCACAAAGCUUGAGAGCAUCUUAGGAUGCAGAGGCGGCAGCCUUCGGUGGCGCGAUAGAGCCAACGUUCUCACCUAUGACACGCAAAACGAGUGCUCCGUUGAAUGGAGUUGAUCAUG, the “polymerase ribozyme fitness (log ratio)” value is at most -4.2.
Regarding GGAUCUUCUCGAUCUAACAAAAAAGACAAAUCUGCCACAAAGCUUGAGAGCAUCUUAGGAUGCAGAGCCGGCAGCCUUCGGUGGAGCGAUAGCGCCAACGUUCUCAACUAUGACACGCAAAACGCGUGCUCCGAUGAAUGGAGUUCAUCAUG, the “polymerase ribozyme fitness (log ratio)” value is at most -4.2.
Turning to GGAUCUUCUCGAUCUAACAAAAAAGACAAAUCUGCCACAAAGCUUGAGAGCAUCUUAGGAUGCAGAGGCGGCAGCCUUCGGUGGCGGGAUAGCGCCAACGUUCUCAACUAUGACACGCAAAACGCGUGCUCCGUUGAAUGGAGUUUAACAUG, the “polymerase ribozyme fitness (log ratio)” value is at most -4.2.
As for GGAUCUUCUCGAUCUAACAAAAAAGACAAAUCUGCCACAAAGCUUGAGAGCAUCUUAGGAUGCAGAGGCGGCAUCCUUCGGUGGCGCGAUAGCACCAAAGUUCUCAACUCUGACACGAAAAACGCGUGCUCCGUUGAAUGGAGUUUAUCAUG, the “polymerase ribozyme fitness (log ratio)” value was at most -4.2.
Turning to GGAUCUUCUCGAUCUAACAAAAAAGACAAAUCUGCCACAAAGCUUGAGAGCAUCUUAGGAUCCAGAGGCGGCAGCUUUCGGUGGCGCGAUUGCGCCAACGUUCUCAAUUAUGACACGCAAAACGCGUGCUCCGUUGAAUUGAGGUUAUGAUG, the “polymerase ribozyme fitness (log ratio)” value is at most -4.2.
Under GGAUCUUCUCGAUCUAACAAAAAAGACAAAUCUGCCACAAAGCUUGAGAGCAUCUUGGGAUGCAGAGGCGGCUGCCUUCGGUGGCCCGAUAGCGCCAACGUUCUCAACUAGGACACGCAAAACGCGUGCUCCGUUGAAUCGAGUUUAUCAUG stands at most -4.2.
Under GGAUCUUCUCGAUCUAACAAAAAAGACAAAUCUGCCACAAAGCUUGAGAGCAUCUUAGGAUGCAGAGUCGGCAGCCUUCGGUGGCACGAUAGCGCCAACGUUCUCAACUAUGACACGCAAAACGCGUGCUCCGUUGAAUGGAGUUUAUAAUG stands at most -4.2.
With GGAUCUUCUCGAUCUAACAAAAAAGACAAAUCUGCCACAAAGCUUGAGAGCAUCUUAGGAUGCAGAGGCGGCAGCCUUCGGUGGCGCAAUAGCGCCAACGUUCUGAACUAUGACACGCGGAACGCGUGCUCCGUUGAAUGGAGUUUAUCAUG, the “polymerase ribozyme fitness (log ratio)” value is at most -4.2.
On to GGAUCUUCUCGAUCUAACAAAAAAGACAAAUCUGCCACAAAGCUUGAGAGCAUCUUAGGAUGCAAAGGCGGCAGCCUUCGGUGGCGCGAUAGCGCCAACGUUCUCAACUAUGACACGCAAAACGCGUGCUCCGUUGAAUGGAGUUUAUCAUG, for which the “polymerase ribozyme fitness (log ratio)” value is -0.56.
Consider GGAUCUUCUCGAUCUAACAAAAAAGACAAAUCUGCCACAAAGCUUGAGAGCAUCUUAGGAAGCAGAGGCGGCAGCCUUCGGUGGCGCGAUAGCGUCUACGUUCUCAACUAUGACUCGCAAAACGCGUGCUCCGUUGAAUGGAGCUUAUCAUG, for which the “polymerase ribozyme fitness (log ratio)” value is at most -4.2.
On to GGAUCUUCUCGAUCUAACAAAAAAGACAAAUCUGCCACAAAGCUUGAGAGCAUCUUAGGAUGCAGAGGCGGCAGCCUUCGGUGGCGGGAUAGCGCCAACGUUCUCAACUAUGACACGCAAAACGCUUGCUCCGUUGAAUGGAGUUUAUCAUG, for which the “polymerase ribozyme fitness (log ratio)” value is at most -4.2.
As to GGAUCUUCUCGAUCUAACAAAAAAGACAAAUCUGCCACAAAGCUUGAGAGCAUCUUAGGAUGCAGAGGCGGCAGCCUUCGGAGGCGCGAUAGCGCCAACGUUCUCAACUAUGACACGCAAUACGCGUGCUCCCUUGAAUGGAGUUUAUCAUG, the “polymerase ribozyme fitness (log ratio)” value was -0.916.
Consider GGAUCUUCUCGAUCUAACAAAAAAGACAAAUCUGCCACAAAGCUUGAGAGCAUCUUGGGAUGCAGAGGCGGCGGCCUUCGGUGGCGCGAUAGCGCCAACGUUCUCAACUAUGACAUGCAAAACGCGUGCUCCGUUGAAUGGAGUUUAUCAUG, for which the “polymerase ribozyme fitness (log ratio)” value was -0.324.
In the case of GGAUCUUCUCGAUCUAACAAAAAAGACAAAUCUGCCACAAAGCUUGAGAGCAUCUUAGGAUGCAGAGGCGGCAGCCUUCGGUGGCACGAUAGCGCCAACGUUCUCAACUAUGACACGCAAAACGCGUACUCCGUUGAAUGGAGUUUAUCAUG, the “polymerase ribozyme fitness (log ratio)” value is at most -4.2.
GGAUCUUCUCGAUCUAACAAAAAAGACAAAUCUGCCACAAAGCUUGAGAGCAUCUUAGGAUGCAAAGGCGGCAGCCUUCGGGGGCGCGAUAGCGCCAACGUUCUCAACUAUGACACGCAAAACGCGUGCUCCGUUGAAUGGAGUUUAUCAUG: the “polymerase ribozyme fitness (log ratio)” value was -0.673.
For the variant GGAUCUUCUCGAUCUAACAAAAAAGACAAAUCUGCCACAAAGCUUGAGAGCAUCUUGGGAUGCAGAGGCGGCAGCCUUCGGUGGCGCGAUAGCGCCAACGUUCUCAACUAUGACUCGCAAAACGCGUGCUCCGUUGAAUGGAGUAUAUCAUG, the “polymerase ribozyme fitness (log ratio)” value is -1.54.
Turning to GGAUCUUCUCGAUCUAACAAAAAAGACAAAUCUGCCACAAAGCUUGAGAGCAUCUUAGGAUGCAGAGGCGGCAGCCUUCGGUGGCGCGAUAGCGCUAACGUUCUCAAUUAUGACACGCAAAACGCGUGCUCCGUUGAAUAGAGUUUAUCAUG, the “polymerase ribozyme fitness (log ratio)” value was at most -4.2.
